Consider 86 sequences from the supplement of paper PMC4166925.

± gives the standard deviation of the averaged measurements. Whole data set: some 33,000 sequences, median “E-score (dimensionless, -0.5 to 0.5)” near -0.046, cut for the highest 2% near 0.36. This is one part of the list.

This test has as its system T1, SpTbr T-box DNA-binding domain (GST fusion).
T1 sequence: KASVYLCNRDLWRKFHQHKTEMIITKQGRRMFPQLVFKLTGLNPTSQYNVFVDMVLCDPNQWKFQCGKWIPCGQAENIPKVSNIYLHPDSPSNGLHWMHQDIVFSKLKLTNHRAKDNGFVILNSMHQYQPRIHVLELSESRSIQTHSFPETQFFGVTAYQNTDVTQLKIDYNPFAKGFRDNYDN
Briefly: PBM E-score of 8-mer (E-score (dimensionless, -0.5 to 0.5)); Tbr is Tbrain of the sea star Patiria miniata (Pm) or the sea urchin Strongylocentrotus purpuratus (Sp); higher = stronger binding preference; most listed sequences are background and not binding sites. As to conditions: the construct has about 5 more residues each side. Summed up:
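Primer extension turned Universal Agilent oligonucleotide arrays double-stranded. They were incubated with 200 nM protein in PBS (pH 7.5); the protein was a GST-fused Tbr T-box DNA-binding domain expressed in BL21 E. coli at 20 °C and purified on glutathione. Every ungapped 8-mer was scored from the scanned, quantified probe intensities, and the Universal PBM Analysis Suite gave each an enrichment E-score averaged over duplicate arrays.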
Take CTTGACAC: the “PBM E-score of 8-mer” value is 0.436 ± 0.0093.

Regarding GCCCTATA, the “PBM E-score of 8-mer” value was -0.244 ± 0.014.

Consider TAAAAAGA, for which the “PBM E-score of 8-mer” value was -0.118 ± 0.082.

On to ACGTGCGC, for which the “PBM E-score of 8-mer” value turned out to be 0.122 ± 0.029.

Regarding ACGACGAC, the “PBM E-score of 8-mer” value turned out to be 0.171 ± 0.0032.

Regarding GAACATCA, the “PBM E-score of 8-mer” value was -0.103 ± 0.008.

As for GCTCGTCC, the “PBM E-score of 8-mer” value was -0.321 ± 0.022.

For the sequence ATGTGTAA, the “PBM E-score of 8-mer” value turned out to be 0.342 ± 0.0099.

Take CAGTGCGC: the “PBM E-score of 8-mer” value amounted to 0.00847 ± 0.051.

In the case of AGGCTATG, the “PBM E-score of 8-mer” value was -0.349 ± 0.078.

For the sequence CGTGATTA, the “PBM E-score of 8-mer” value was found to be 0.179 ± 0.019.

For GAGTTAAC, the “PBM E-score of 8-mer” value turned out to be 0.148 ± 0.066.

Regarding CCAGGCGC, the “PBM E-score of 8-mer” value was 0.22 ± 0.04.

On to CTTAACGC, for which the “PBM E-score of 8-mer” value came out at 0.268 ± 0.028.

With ACCCCAGG, the “PBM E-score of 8-mer” value was -0.0991 ± 0.002.

For the sequence CTGGAACC, the “PBM E-score of 8-mer” value is -0.212 ± 0.023.

As to AACCAGCT, the “PBM E-score of 8-mer” value was found to be 0.104 ± 0.066.

Consider AGTCAGAT, for which the “PBM E-score of 8-mer” value was -0.0982 ± 0.017.

Consider CGTTGACC, for which the “PBM E-score of 8-mer” value was 0.0141 ± 0.0079.

As to GAAGCATC, the “PBM E-score of 8-mer” value is -0.125 ± 0.018.

Regarding CCAATGGA, the “PBM E-score of 8-mer” value is -0.135 ± 0.0076.

For CAGCTGGC, the “PBM E-score of 8-mer” value stood at 0.0425 ± 0.028.

With GTTGCGTA, the “PBM E-score of 8-mer” value is 0.048 ± 0.029.

With CGAAATAC, the “PBM E-score of 8-mer” value was 0.0213 ± 0.03.

AAGCTATA: the “PBM E-score of 8-mer” value is -0.0728 ± 0.05.

Consider AGCAAATA, for which the “PBM E-score of 8-mer” value is -0.0692 ± 0.018.

Regarding GGCTCTAA, the “PBM E-score of 8-mer” value was found to be 0.0644 ± 0.035.

Regarding CAAGGGTC, the “PBM E-score of 8-mer” value is -0.194 ± 0.032.

Turning to CGTAACGC, the “PBM E-score of 8-mer” value amounted to 0.0933 ± 0.014.

Turning to AGGTCAAG, the “PBM E-score of 8-mer” value was -0.2167 ± 0.00059.

CCCGCTTA: the “PBM E-score of 8-mer” value was -0.15 ± 0.095.

Take GCAGCTCC: the “PBM E-score of 8-mer” value worked out at 0.0185 ± 0.065.

For CAGCCATG, the “PBM E-score of 8-mer” value is -0.12 ± 0.027.

Turning to GGTTAGAA, the “PBM E-score of 8-mer” value was -0.147 ± 0.013.

Take TACTAGAA: the “PBM E-score of 8-mer” value is -0.301 ± 0.035.

Take ATCTCGTA: the “PBM E-score of 8-mer” value is -0.0335 ± 0.027.

On to AACGGAGT, for which the “PBM E-score of 8-mer” value is 0.074 ± 0.025.

For the sequence ACGTAAGC, the “PBM E-score of 8-mer” value stood at 0.0625 ± 0.067.

In the case of CGAGGTGC, the “PBM E-score of 8-mer” value came to 0.445 ± 0.0072.

Take GCTAGCTA: the “PBM E-score of 8-mer” value stood at 0.117 ± 0.03.

For ATGGAGAC, the “PBM E-score of 8-mer” value was -0.173 ± 0.012.

With ATTATATC, the “PBM E-score of 8-mer” value is -0.136 ± 0.018.

In the case of GAGCCCAA, the “PBM E-score of 8-mer” value is -0.187 ± 0.032.

Take CATGCACC: the “PBM E-score of 8-mer” value was -0.1 ± 0.018.

CTCGAGTC: the “PBM E-score of 8-mer” value was -0.181 ± 0.018.

In the case of GGTATGAA, the “PBM E-score of 8-mer” value was 0.04482 ± 0.00011.

Regarding GGGTTGCA, the “PBM E-score of 8-mer” value was -0.0388 ± 0.04.

AAGATTGC: the “PBM E-score of 8-mer” value is -0.117 ± 0.02.

Take CTGCGTGA: the “PBM E-score of 8-mer” value came out at 0.172 ± 0.033.

For CGGTATTC, the “PBM E-score of 8-mer” value is -0.193 ± 0.0094.

As for AAAGTTAT, the “PBM E-score of 8-mer” value is 0.0124 ± 0.035.

As to CCAGATAG, the “PBM E-score of 8-mer” value is -0.0992 ± 0.038.

For AACTTGAG, the “PBM E-score of 8-mer” value is 0.0512 ± 0.074.

Take ATGTGCTA: the “PBM E-score of 8-mer” value was determined as 0.328 ± 0.024.

On to GTCCCACA, for which the “PBM E-score of 8-mer” value came out at 0.186 ± 0.043.

As to AGTAACTC, the “PBM E-score of 8-mer” value was -0.0161 ± 0.012.

For the sequence CATCCACA, the “PBM E-score of 8-mer” value was 0.217 ± 0.03.

Regarding CGACCATC, the “PBM E-score of 8-mer” value worked out at 0.0183 ± 0.023.

Turning to GTAGTACA, the “PBM E-score of 8-mer” value is -0.227 ± 0.025.

On to ATCACGAT, for which the “PBM E-score of 8-mer” value is 0.0135 ± 0.013.

ACGCTAAG: the “PBM E-score of 8-mer” value turned out to be 0.0479 ± 0.022.

For GGACAGGA, the “PBM E-score of 8-mer” value was -0.197 ± 0.039.

With ATCGAAGG, the “PBM E-score of 8-mer” value is -0.136 ± 0.032.

With GGCAGATA, the “PBM E-score of 8-mer” value was -0.156 ± 0.043.

CCCACCGA: the “PBM E-score of 8-mer” value stood at 0.0487 ± 0.022.

CTATCTGA: the “PBM E-score of 8-mer” value was 0.171 ± 0.068.

GCCGTCGC: the “PBM E-score of 8-mer” value was determined as 0.144 ± 0.022.

As to TAATCTGA, the “PBM E-score of 8-mer” value is -0.157 ± 0.031.

As for ACGCTTTA, the “PBM E-score of 8-mer” value amounted to 0.0822 ± 0.041.

CGATTTCC: the “PBM E-score of 8-mer” value was -0.0331 ± 0.02.

With CAGGTCAC, the “PBM E-score of 8-mer” value turned out to be 0.171 ± 0.08.

As for ACGCAGAG, the “PBM E-score of 8-mer” value was -0.0355 ± 0.11.

With GGTTAAGA, the “PBM E-score of 8-mer” value was -0.142 ± 0.0063.

For the sequence CAGGCGAC, the “PBM E-score of 8-mer” value was 0.166 ± 0.05.

Turning to AGTGTGGG, the “PBM E-score of 8-mer” value was 0.399 ± 0.018.

For the sequence GGCGATTA, the “PBM E-score of 8-mer” value was -0.289 ± 0.013.

Regarding AGCAAAGG, the “PBM E-score of 8-mer” value was -0.0921 ± 0.024.

Turning to AATGCTAA, the “PBM E-score of 8-mer” value was -0.0592 ± 0.014.

With GAAACTCC, the “PBM E-score of 8-mer” value is -0.0865 ± 0.014.

For CTTTTATC, the “PBM E-score of 8-mer” value was -0.153 ± 0.14.

Take ATTTCGAA: the “PBM E-score of 8-mer” value was -0.0836 ± 0.0012.

Regarding CTTGTCCC, the “PBM E-score of 8-mer” value is -0.202 ± 0.029.

For the sequence GGTGAAAC, the “PBM E-score of 8-mer” value was -0.0179 ± 0.017.

For the sequence TCAGATCA, the “PBM E-score of 8-mer” value is -0.106 ± 0.022.

Regarding GTACGAGA, the “PBM E-score of 8-mer” value is -0.203 ± 0.0077.

As for ACATGACC, the “PBM E-score of 8-mer” value is -0.125 ± 0.059.
